# Data reported in the supplement of paper PMC10037445.
# Whole data set: some 2,900 compounds, median “NF-kB SEAP reporter activity, fold change vs agonist alone” near 0.99, cut for the highest 2% near 2.6. The list shows a part of the results.
# Legend:
# RAW-Dual [1] = experiment: NF-kB SEAP reporter activity, fold change vs agonist alone; higher = enhanced NF-kB activity
# Outline: (§1)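 Supernatant from RAW-Dual macrophages was read after 20 hours for IRF by QuantiLuc luminescence and for NF-κB by QuantiBlue absorbance at 620 nm. The cells (50,000 cells/well in DMEM, 384-well plates, 37 °C, 5% CO2) had received 50 nL of library stock by pin tool and, 1 h later, a PRR agonist. Reporter activity is expressed relative to agonist-alone wells as fold change, and wells were flagged cytotoxic if IncuCyte confluency was under 70% of agonist controls in both mask sets.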
# RAW-Dual [2] = experiment: NF-kB SEAP reporter activity, fold change vs agonist alone; cytotoxicity flag (confluency mask): not cytotoxic; higher = enhanced NF-kB activity
# Outline: as §1
# RAW-Dual [3] = experiment: NF-kB SEAP reporter activity, fold change vs agonist alone; cytotoxicity flag (confluency mask): cytotoxic (confluency <70% of control); higher = enhanced NF-kB activity
# Outline: as §1
# [4] = library stock concentration (final ~1000-fold dilution): 10 mM, cytotoxicity flag (confluency mask): not cytotoxic, agonist: Imiquimod (TLR7) […]
# [5] = library stock concentration (final ~1000-fold dilution): 10 mM, cytotoxicity flag (confluency mask): not cytotoxic, agonist: MPLA (TLR4) […]
# [6] = agonist: ODN 1826 (TLR9) 0.5 ug/mL
# [7] = agonist: Pam2CSK4 (TLR2/6) 0.1 ug/mL
# [8] = agonist: Pam3CSK4 (TLR2/1) 0.1 ug/mL
# [9] = library stock concentration (final ~1000-fold dilution): 10 mM, cytotoxicity flag (confluency mask): cytotoxic (confluency <70% of control), agonist: Imiquimod (TLR7) […]
# [10] = library stock concentration (final ~1000-fold dilution): 10 mM, cytotoxicity flag (confluency mask): cytotoxic (confluency <70% of control), agonist: MPLA (TLR4) […]
smiles,measurement,setting,value
CC1(C(=O)O)CCC2(C)CCC3(C)C(=CC(=O)C4C5(C)CCC(OC6OC(C(=O)O)C(O)C(O)C6OC6OC(C(=O)O)C(O)C(O)C6O)C(C)(C)C5CCC43C)C2C1.N.N (stereo not drawn),NF-kB SEAP reporter activity,RAW-Dual [1]; [4],0.926
same,NF-kB SEAP reporter activity,RAW-Dual [1]; [5],1.03
CC1(C(=O)O)CCC2(C)CCC3(C)C(=CC(=O)C4C5(C)CCC(OC6OC(C(=O)O)C(O)C(O)C6OC6OC(C(=O)O)C(O)C(O)C6O)C(C)(C)C5CCC43C)C2C1.N.N (stereo not drawn) (library stock concentration (final ~1000-fold dilution): 10 mM),NF-kB SEAP reporter activity,RAW-Dual [2]; agonist: LPS (TLR4) 0.1 ug/mL,0.96
same,NF-kB SEAP reporter activity,RAW-Dual [2]; [6],0.88
same,NF-kB SEAP reporter activity,RAW-Dual [2]; [7],0.866
same,NF-kB SEAP reporter activity,RAW-Dual [2]; [8],1.15
CNS(=O)(=O)Nc1nccc(Cc2c(C)c3ccc(Oc4ncccn4)cc3oc2=O)c1F,NF-kB SEAP reporter activity,RAW-Dual [1]; [4],0.168
same,NF-kB SEAP reporter activity,RAW-Dual [1]; [5],0.289
CNS(=O)(=O)Nc1nccc(Cc2c(C)c3ccc(Oc4ncccn4)cc3oc2=O)c1F (library stock concentration (final ~1000-fold dilution): 10 mM),NF-kB SEAP reporter activity,RAW-Dual [2]; agonist: LPS (TLR4) 0.1 ug/mL,0.195
same,NF-kB SEAP reporter activity,RAW-Dual [2]; [6],0.407
same,NF-kB SEAP reporter activity,RAW-Dual [2]; [7],0.0713
same,NF-kB SEAP reporter activity,RAW-Dual [2]; [8],0.134
Cl.OC1CCC(Nc2ncc3nc(Nc4c(F)cc(F)cc4F)n(C4CCOC4)c3n2)CC1 (stereo not drawn) (library stock concentration (final ~1000-fold dilution): 10 mM),NF-kB SEAP reporter activity,RAW-Dual [2]; agonist: LPS (TLR4) 0.1 ug/mL,0.387
same,NF-kB SEAP reporter activity,RAW-Dual [2]; [6],0.417
same,NF-kB SEAP reporter activity,RAW-Dual [2]; [7],0.129
same,NF-kB SEAP reporter activity,RAW-Dual [2]; [8],0.218
Cl.OC1CCC(Nc2ncc3nc(Nc4c(F)cc(F)cc4F)n(C4CCOC4)c3n2)CC1 (stereo not drawn),NF-kB SEAP reporter activity,RAW-Dual [1]; [4],0.575
same,NF-kB SEAP reporter activity,RAW-Dual [1]; [5],0.452
CC(C)(C)OC(=O)NC1CCCCC/C=C\C2CC2(C(=O)NS(=O)(=O)C2CC2)NC(=O)C2CC(OC(=O)N3Cc4cccc(F)c4C3)CN2C1=O (stereo not drawn) (library stock concentration (final ~1000-fold dilution): 10 mM),NF-kB SEAP reporter activity,RAW-Dual [2]; agonist: LPS (TLR4) 0.1 ug/mL,1.01
same,NF-kB SEAP reporter activity,RAW-Dual [2]; [6],0.995
same,NF-kB SEAP reporter activity,RAW-Dual [2]; [7],0.808
same,NF-kB SEAP reporter activity,RAW-Dual [2]; [8],1.03
CC(C)(C)OC(=O)NC1CCCCC/C=C\C2CC2(C(=O)NS(=O)(=O)C2CC2)NC(=O)C2CC(OC(=O)N3Cc4cccc(F)c4C3)CN2C1=O (stereo not drawn),NF-kB SEAP reporter activity,RAW-Dual [1]; [4],0.902
same,NF-kB SEAP reporter activity,RAW-Dual [1]; [5],1.01
CNc1nc(-c2ccc3c(N)n[nH]c3c2)cc(N2CC(C(=O)NC3CCCCC3)CCC2C)n1 (stereo not drawn),NF-kB SEAP reporter activity,RAW-Dual [1]; [4],0.991
same,NF-kB SEAP reporter activity,RAW-Dual [1]; [5],1.06
CNc1nc(-c2ccc3c(N)n[nH]c3c2)cc(N2CC(C(=O)NC3CCCCC3)CCC2C)n1 (stereo not drawn) (library stock concentration (final ~1000-fold dilution): 10 mM),NF-kB SEAP reporter activity,RAW-Dual [2]; agonist: LPS (TLR4) 0.1 ug/mL,1.27
same,NF-kB SEAP reporter activity,RAW-Dual [2]; [6],0.182
same,NF-kB SEAP reporter activity,RAW-Dual [2]; [7],0.58
same,NF-kB SEAP reporter activity,RAW-Dual [2]; [8],0.488
CC1CNC(=O)c2cnn3ccc(nc23)NC(C)c2cc(F)ccc2O1 (stereo not drawn) (library stock concentration (final ~1000-fold dilution): 10 mM),NF-kB SEAP reporter activity,RAW-Dual [2]; agonist: LPS (TLR4) 0.1 ug/mL,1.58
same,NF-kB SEAP reporter activity,RAW-Dual [2]; [6],0.9
same,NF-kB SEAP reporter activity,RAW-Dual [2]; [7],0.5
same,NF-kB SEAP reporter activity,RAW-Dual [2]; [8],0.422
CC1CNC(=O)c2cnn3ccc(nc23)NC(C)c2cc(F)ccc2O1 (stereo not drawn),NF-kB SEAP reporter activity,RAW-Dual [1]; [4],0.753
same,NF-kB SEAP reporter activity,RAW-Dual [1]; [5],0.916
Nc1nccc(Oc2ccc3c(C(=O)Nc4cccc(C(F)(F)F)c4)cccc3c2)n1 (library stock concentration (final ~1000-fold dilution): 10 mM),NF-kB SEAP reporter activity,RAW-Dual [2]; agonist: LPS (TLR4) 0.1 ug/mL,0.325
same,NF-kB SEAP reporter activity,RAW-Dual [2]; [6],0.326
same,NF-kB SEAP reporter activity,RAW-Dual [2]; [7],0.132
same,NF-kB SEAP reporter activity,RAW-Dual [2]; [8],0.178
Nc1nccc(Oc2ccc3c(C(=O)Nc4cccc(C(F)(F)F)c4)cccc3c2)n1,NF-kB SEAP reporter activity,RAW-Dual [1]; [4],0.327
same,NF-kB SEAP reporter activity,RAW-Dual [1]; [5],0.375
CN1CCN(c2cccc(Nc3nc4c(-c5ccc(S(C)(=O)=O)cc5)cccn4n3)c2)CC1,NF-kB SEAP reporter activity,RAW-Dual [1]; [4],0.514
same,NF-kB SEAP reporter activity,RAW-Dual [1]; [5],0.729
CN1CCN(c2cccc(Nc3nc4c(-c5ccc(S(C)(=O)=O)cc5)cccn4n3)c2)CC1 (library stock concentration (final ~1000-fold dilution): 10 mM),NF-kB SEAP reporter activity,RAW-Dual [2]; agonist: LPS (TLR4) 0.1 ug/mL,0.349
same,NF-kB SEAP reporter activity,RAW-Dual [2]; [6],0.193
same,NF-kB SEAP reporter activity,RAW-Dual [2]; [7],0.152
same,NF-kB SEAP reporter activity,RAW-Dual [2]; [8],0.234
O=C(/C=C/c1ccc2ccc(C(F)(F)F)cc2n1)c1ccncc1,NF-kB SEAP reporter activity,RAW-Dual [1]; [9],0.59
same,NF-kB SEAP reporter activity,RAW-Dual [1]; [10],0.757
O=C(/C=C/c1ccc2ccc(C(F)(F)F)cc2n1)c1ccncc1 (library stock concentration (final ~1000-fold dilution): 10 mM),NF-kB SEAP reporter activity,RAW-Dual [3]; agonist: LPS (TLR4) 0.1 ug/mL,0.521
same,NF-kB SEAP reporter activity,RAW-Dual [3]; [6],0.532
same,NF-kB SEAP reporter activity,RAW-Dual [3]; [7],0.35
same,NF-kB SEAP reporter activity,RAW-Dual [3]; [8],0.304
Oc1ccc(O)cc1 (library stock concentration (final ~1000-fold dilution): 10 mM),NF-kB SEAP reporter activity,RAW-Dual [2]; agonist: LPS (TLR4) 0.1 ug/mL,0.383
same,NF-kB SEAP reporter activity,RAW-Dual [2]; [6],0.983
same,NF-kB SEAP reporter activity,RAW-Dual [2]; [7],0.936
same,NF-kB SEAP reporter activity,RAW-Dual [2]; [8],0.297
Oc1ccc(O)cc1,NF-kB SEAP reporter activity,RAW-Dual [1]; [4],2.01
same,NF-kB SEAP reporter activity,RAW-Dual [1]; [5],0.442
CNC(=O)c1nn(C)c2c1C(C)(C)Cc1cnc(Nc3ccc(N4CCN(C)CC4)cc3)nc1-2,NF-kB SEAP reporter activity,RAW-Dual [1]; [9],2.16
same,NF-kB SEAP reporter activity,RAW-Dual [1]; [10],0.678
CNC(=O)c1nn(C)c2c1C(C)(C)Cc1cnc(Nc3ccc(N4CCN(C)CC4)cc3)nc1-2 (library stock concentration (final ~1000-fold dilution): 10 mM),NF-kB SEAP reporter activity,RAW-Dual [3]; agonist: LPS (TLR4) 0.1 ug/mL,0.229
same,NF-kB SEAP reporter activity,RAW-Dual [3]; [6],1.12
same,NF-kB SEAP reporter activity,RAW-Dual [3]; [7],0.0958
same,NF-kB SEAP reporter activity,RAW-Dual [3]; [8],0.185
COC1=CC(=O)CC(C)C12Oc1c(Cl)c(OC)cc(OC)c1C2=O (stereo not drawn) (library stock concentration (final ~1000-fold dilution): 10 mM),NF-kB SEAP reporter activity,RAW-Dual [2]; agonist: LPS (TLR4) 0.1 ug/mL,0.897
same,NF-kB SEAP reporter activity,RAW-Dual [2]; [6],0.816
same,NF-kB SEAP reporter activity,RAW-Dual [2]; [7],0.787
same,NF-kB SEAP reporter activity,RAW-Dual [2]; [8],0.943
COC1=CC(=O)CC(C)C12Oc1c(Cl)c(OC)cc(OC)c1C2=O (stereo not drawn),NF-kB SEAP reporter activity,RAW-Dual [1]; [4],0.909
same,NF-kB SEAP reporter activity,RAW-Dual [1]; [5],0.842
COc1ccc(C=Cc2cc(OC)c(OC)c(OC)c2)cc1OP(=O)(O)O (library stock concentration (final ~1000-fold dilution): 10 mM water),NF-kB SEAP reporter activity,RAW-Dual [3]; agonist: LPS (TLR4) 0.1 ug/mL,5.99
same,NF-kB SEAP reporter activity,RAW-Dual [3]; [6],2.48
same,NF-kB SEAP reporter activity,RAW-Dual [3]; [7],2.34
same,NF-kB SEAP reporter activity,RAW-Dual [3]; [8],2.65
COc1ccc(C=Cc2cc(OC)c(OC)c(OC)c2)cc1OP(=O)(O)O,NF-kB SEAP reporter activity,"RAW-Dual [1]; library stock concentration (final ~1000-fold dilution): 10 mM water, cytotoxicity flag (confluency mask): cytotoxic (confluency <70% of control), agonist: Imiquimod (TLR7) […]",1.67
same,NF-kB SEAP reporter activity,"RAW-Dual [1]; library stock concentration (final ~1000-fold dilution): 10 mM water, cytotoxicity flag (confluency mask): cytotoxic (confluency <70% of control), agonist: MPLA (TLR4) […]",2.09
